Compound in the experiment: FC(F)c1nc2ccccc2n1-c1nc(N2CCOCC2)nc(N2CCOCC2)n1 [ZSTK474]
In words: Viability of human cancer cell lines after 72 h of drug (GDSC screen). The procedure: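 Human cancer cell lines in 384-well plates, medium with 10% serum, drug for 72 h over a 256-fold dose range (nine 2-fold or five 4-fold steps up to the top dose). Adherent lines were fixed and stained with the nucleic acid dye Syto60, suspension lines read with resazurin; signal relative to control wells, capped at 0 and 100%. One two-parameter sigmoid per drug and line, fitted in a mixed model over all curves with the slope shared within a line.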

pIC50: −log10 of the molar value. Lines with a small IC50 respond at low doses; a fit beyond the top or the lowest dose is shown as a bound at that dose. AUC is the area under the same curve over the 256-fold range up to the top dose, as a fraction; values near 1 show little effect. Some results are limits rather than exact numbers.

What is called pIC50 is the IC50 on a negative log10 scale, so that one unit is a factor of ten.

As for “NCI-SNU-16 (stomach, suspension, top dose 5.12 µM)”, the AUC is 0.99 and the negative logarithm of the IC50 (pIC50) is below 5.29.
For “NEC8 (testis, adherent, top dose 5.12 µM)”, in that order: 0.966 and below 5.29.
For “NH-12 (neuroblastoma, adherent, top dose 5.12 µM)” the same measures were 0.74 and 5.76.
In the case of “NK-92MI (lymphoid neoplasm, suspension, top dose 5.12 µM)”, the AUC was 0.216 and the pIC50 was 7.29.
“NKM-1 (acute myeloid leukaemia, suspension, top dose 5.12 µM)”: the AUC was found to be 0.289 and the negative-log IC50 (pIC50) is 7.10.
For “NMC-G1 (glioma, adherent, top dose 5.12 µM)”, in that order: 0.743 and 5.72.
With “NOMO-1 (acute myeloid leukaemia, suspension, top dose 5.12 µM)”, the AUC stood at 0.638 and the negative logarithm of the IC50 (pIC50) was 6.09.
Regarding “NOS-1 (osteosarcoma, adherent, top dose 5.12 µM)”, the AUC was determined as 0.389 and the negative logarithm of the IC50 (pIC50) was 6.83.
“NTERA-2 cl.D1 (testis, adherent, top dose 5.12 µM)”: the AUC worked out at 0.73 and the pIC50 is 5.84.
For “NU-DUL-1 (B-cell lymphoma, suspension, top dose 5.12 µM)”, in that order: 0.056 and above 7.70.
For “NUGC-3 (stomach, adherent, top dose 5.12 µM)” the same measures were 0.875 and below 5.29.
For “NUGC-4 (stomach, adherent, top dose 5.12 µM)”, in that order: 0.96 and below 5.29.
For “NY (osteosarcoma, adherent, top dose 5.12 µM)”, the AUC is 0.965 and the pIC50 was below 5.29.
For “OACM5-1 (oesophagus, semi-adherent, top dose 5.12 µM)” the same measures were 0.411 and 6.75.
For “OACp4C (oesophagus, adherent, top dose 5.12 µM)”, in that order: 0.414 and 6.75.
As to “OAW-28 (ovary, adherent, top dose 5.12 µM)”, the AUC turned out to be 0.759 and the pIC50 is 5.65.
Consider “OAW-42 (ovary, adherent, top dose 5.12 µM)”, for which the AUC was found to be 0.58 and the pIC50 was 6.27.
For “OC-314 (ovary, adherent, top dose 5.12 µM)” the same measures were 0.749 and 5.84.
For “OCI-AML2 (acute myeloid leukaemia, suspension, top dose 5.12 µM)”, in that order: 0.896 and 5.46.
For “OCI-AML3 (acute myeloid leukaemia, suspension, top dose 5.12 µM)”, in that order: 0.453 and 6.62.
Turning to “OCI-AML5 (acute myeloid leukaemia, suspension, top dose 5.12 µM)”, the AUC amounted to 0.359 and the pIC50 was 6.87.
“OCI-LY-19 (B-cell lymphoma, suspension, top dose 5.12 µM)”: the AUC was determined as 0.253 and the negative-log IC50 (pIC50) was 7.17.
For “OCI-M1 (acute myeloid leukaemia, suspension, top dose 5.12 µM)” the same measures were 0.374 and 6.80.
“OCUB-M (breast, adherent, top dose 5.12 µM)”: the AUC was 0.594 and the negative logarithm of the IC50 (pIC50) is 6.25.
For “OCUM-1 (stomach, adherent, top dose 5.12 µM)”, in that order: 0.968 and below 5.29.
For “OE19 (oesophagus, adherent, top dose 5.12 µM)”, in that order: 0.984 and below 5.29.
In the case of “OE21 (oesophagus, adherent, top dose 5.12 µM)”, the AUC came to 0.913 and the pIC50 was below 5.29.
For “OE33 (oesophagus, adherent, top dose 5.12 µM)” the same measures were 0.766 and 5.65.
For “OMC-1 (cervix, adherent, top dose 5.12 µM)” the same measures were 0.81 and 5.55.
Regarding “ONS-76 (medulloblastoma, adherent, top dose 5.12 µM)”, the AUC was found to be 0.856 and the pIC50 is 5.33.
For “OPM-2 (myeloma, suspension, top dose 5.12 µM)” the same measures were 0.588 and 6.27.
As for “OS-RC-2 (kidney, adherent, top dose 5.12 µM)”, the AUC is 0.601 and the pIC50 is 6.16.
For “OSC-19 (head and neck, adherent, top dose 5.12 µM)” the same measures were 0.859 and 5.34.
As to “OSC-20 (head and neck, adherent, top dose 5.12 µM)”, the AUC was 0.784 and the pIC50 was 5.58.
Turning to “OV-7 (ovary, adherent, top dose 5.12 µM)”, the AUC worked out at 0.635 and the pIC50 was 6.04.
On to “OV-17R (ovary, adherent, top dose 5.12 µM)”, for which the AUC stood at 0.642 and the pIC50 is 6.03.
For “OV-56 (ovary, adherent, top dose 5.12 µM)” the same measures were 0.776 and 5.71.
For “OV-90 (ovary, adherent, top dose 5.12 µM)” the same measures were 0.837 and 5.31.
Regarding “OVCA420 (ovary, adherent, top dose 5.12 µM)”, the AUC is 0.912 and the pIC50 is below 5.29.
Take “OVCA433 (ovary, adherent, top dose 5.12 µM)”: the AUC was found to be 0.834 and the negative-log IC50 (pIC50) was 5.41.
As for “OVCAR-3 (ovary, adherent, top dose 5.12 µM)”, the AUC came out at 0.933 and the pIC50 is below 5.29.
For “OVCAR-4 (ovary, adherent, top dose 5.12 µM)” the same measures were 0.761 and 5.57.
For “OVCAR-5 (ovary, adherent, top dose 5.12 µM)”, in that order: 0.808 and 5.48.
Consider “OVCAR-8 (ovary, adherent, top dose 5.12 µM)”, for which the AUC amounted to 0.812 and the negative-log IC50 (pIC50) was 5.62.
For “OVISE (ovary, adherent, top dose 5.12 µM)” the same measures were 0.669 and 5.95.
For “OVK-18 (ovary, adherent, top dose 5.12 µM)”, the AUC is 0.788 and the negative logarithm of the IC50 (pIC50) is 5.60.
For “OVKATE (ovary, adherent, top dose 5.12 µM)”, in that order: 0.829 and below 5.29.
For “OVMIU (ovary, adherent, top dose 5.12 µM)”, the AUC was 0.424 and the pIC50 was 6.72.
For “OVTOKO (ovary, adherent, top dose 5.12 µM)” the same measures were 0.754 and 5.67.
“P12-ICHIKAWA (T-cell lymphoblastic leukaemia, suspension, top dose 5.12 µM)”: the AUC was 0.376 and the pIC50 is 6.80.
For “P30-OHK (lymphoblastic leukaemia, suspension, top dose 5.12 µM)”, the AUC stood at 0.193 and the negative logarithm of the IC50 (pIC50) is 7.31.
For “P31-FUJ (acute myeloid leukaemia, suspension, top dose 5.12 µM)”, the AUC worked out at 0.985 and the pIC50 was below 5.29.
For “P32-ISH (Burkitt lymphoma, suspension, top dose 5.12 µM)” the same measures were 0.4 and 6.74.
As to “PA-1 (ovary, adherent, top dose 5.12 µM)”, the AUC came out at 0.404 and the pIC50 was 6.73.
For “PA-TU-8902 (pancreas, adherent, top dose 5.12 µM)” the same measures were 0.681 and 5.95.
For “PA-TU-8988T (pancreas, adherent, top dose 5.12 µM)” the same measures were 0.797 and 5.61.
For “PANC-02-03 (pancreas, adherent, top dose 5.12 µM)”, in that order: 0.764 and 5.66.
As to “PANC-03-27 (pancreas, adherent, top dose 5.12 µM)”, the AUC came out at 0.665 and the pIC50 was 6.05.
For “PANC-04-03 (pancreas, adherent, top dose 5.12 µM)”, in that order: 0.976 and below 5.29.
For “PANC-08-13 (pancreas, adherent, top dose 5.12 µM)”, the AUC came to 0.639 and the pIC50 is 6.06.
Consider “PANC-10-05 (pancreas, adherent, top dose 5.12 µM)”, for which the AUC was found to be 0.544 and the negative-log IC50 (pIC50) was 6.36.
Take “PC-3 (prostate, adherent, top dose 5.12 µM)”: the AUC turned out to be 0.638 and the pIC50 is 6.08.
For “PC-3 [JPC-3] (lung adenocarcinoma, adherent, top dose 5.12 µM)”, in that order: 0.645 and 6.03.
For the cell line “PC-14 (lung adenocarcinoma, adherent, top dose 5.12 µM)”, the AUC turned out to be 0.823 and the pIC50 is 5.59.
For “PCI-4B (head and neck, adherent, top dose 5.12 µM)”, in that order: 0.805 and 5.62.
Turning to “PCI-6A (head and neck, adherent, top dose 5.12 µM)”, the AUC is 0.817 and the negative logarithm of the IC50 (pIC50) is 5.55.
Consider “PCI-15A (head and neck, adherent, top dose 5.12 µM)”, for which the AUC was 0.81 and the negative-log IC50 (pIC50) was 5.57.

For the origin of these results see the supplement of paper PMC4967469.
